Assay results taken from publication PMC8945367.
Results are given in words; binding and its absence hold for the method and conditions named. In cells and extracts the contact can be indirect. Some entries that bind do so weakly or less than the wild type.

Protein sequences, listed by entry. Tags and fused reporters are not part of them. Lines headed by an entry give the natural chain unless they say otherwise; changes in a name come on top. Chains listed by the source or under a name are the forms on record and can include a tag or linker.
Mef2c deletional construct Δ(58−85) (Q8CFN5-2, form named): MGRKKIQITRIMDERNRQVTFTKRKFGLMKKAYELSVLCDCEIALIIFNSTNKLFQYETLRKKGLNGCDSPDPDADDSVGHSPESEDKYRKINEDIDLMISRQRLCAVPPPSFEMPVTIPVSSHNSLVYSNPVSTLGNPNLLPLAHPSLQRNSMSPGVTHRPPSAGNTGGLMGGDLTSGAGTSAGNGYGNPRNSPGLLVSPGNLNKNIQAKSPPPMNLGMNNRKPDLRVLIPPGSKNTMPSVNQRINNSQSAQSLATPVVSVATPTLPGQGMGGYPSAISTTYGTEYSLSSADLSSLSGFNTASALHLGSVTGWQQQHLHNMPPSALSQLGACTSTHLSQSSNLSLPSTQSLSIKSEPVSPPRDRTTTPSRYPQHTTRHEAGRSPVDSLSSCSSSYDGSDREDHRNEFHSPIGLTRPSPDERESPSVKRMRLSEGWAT
Mef2c deletional construct 175−466 (Q8CFN5-2, form named): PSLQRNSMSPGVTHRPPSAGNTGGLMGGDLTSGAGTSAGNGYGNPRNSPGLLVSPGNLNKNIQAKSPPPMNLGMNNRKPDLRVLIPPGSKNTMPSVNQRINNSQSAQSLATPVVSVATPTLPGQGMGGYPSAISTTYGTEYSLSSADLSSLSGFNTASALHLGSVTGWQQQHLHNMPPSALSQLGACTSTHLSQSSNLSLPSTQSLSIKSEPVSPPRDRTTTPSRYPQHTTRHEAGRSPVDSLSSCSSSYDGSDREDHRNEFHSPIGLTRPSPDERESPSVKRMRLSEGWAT
6×Myc-Mef2c (Q8CFN5-2, form named): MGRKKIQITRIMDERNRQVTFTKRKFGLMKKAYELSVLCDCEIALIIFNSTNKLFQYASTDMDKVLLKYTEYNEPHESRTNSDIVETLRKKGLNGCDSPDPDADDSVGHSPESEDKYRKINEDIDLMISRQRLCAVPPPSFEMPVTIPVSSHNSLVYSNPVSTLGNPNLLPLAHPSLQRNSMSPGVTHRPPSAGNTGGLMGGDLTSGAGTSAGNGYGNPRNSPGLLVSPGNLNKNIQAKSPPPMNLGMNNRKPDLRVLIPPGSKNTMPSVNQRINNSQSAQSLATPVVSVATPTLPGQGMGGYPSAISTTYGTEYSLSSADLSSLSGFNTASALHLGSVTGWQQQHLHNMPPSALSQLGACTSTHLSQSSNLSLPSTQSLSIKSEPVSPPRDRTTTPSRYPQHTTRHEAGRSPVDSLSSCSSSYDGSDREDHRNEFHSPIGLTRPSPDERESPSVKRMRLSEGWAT
Mef2c deletional construct 86−466 (Q8CFN5-2, form named): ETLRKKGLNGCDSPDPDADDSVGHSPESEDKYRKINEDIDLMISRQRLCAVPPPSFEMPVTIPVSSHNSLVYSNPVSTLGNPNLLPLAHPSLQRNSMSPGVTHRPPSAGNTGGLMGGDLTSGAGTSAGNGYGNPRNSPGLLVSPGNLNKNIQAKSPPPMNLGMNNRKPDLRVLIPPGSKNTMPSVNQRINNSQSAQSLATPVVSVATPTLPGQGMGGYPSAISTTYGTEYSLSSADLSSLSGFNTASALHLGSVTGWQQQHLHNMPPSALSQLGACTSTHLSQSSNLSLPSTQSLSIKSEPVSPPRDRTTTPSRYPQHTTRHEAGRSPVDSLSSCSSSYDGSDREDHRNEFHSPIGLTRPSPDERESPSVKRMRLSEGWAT

How the values were obtained:
Assay in all cases: co-IP; HEK293T cells cotransfected with 3×HA-Creb1 (or mutants) and 6×Myc-Mef2c (or deletions) for 24 h; lysis buffer 50 mM Tris pH 7.5, 150 mM NaCl, 5 mM EDTA, 0.1% Triton X-100, 1 mM dithiothreitol; IP with rat anti-HA antibody (control rat IgG), blot with anti-Myc
[1] = target: 3×HA-Creb1 (UniProt Q01147)
[2] = target: Creb1 deletion mutant 1−149 (UniProt Q01147)
[3] = target: 3×HA-Creb1-S119A (UniProt Q01147)
[4] = target: Creb1 deletional construct 92−327 (UniProt Q01147)
[5] = target: T1, Creb1 deletional construct 254−327 (UniProt Q01147)
T1 sequence: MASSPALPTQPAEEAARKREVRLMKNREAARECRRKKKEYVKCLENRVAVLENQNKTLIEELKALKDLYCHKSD

[6] = target: Creb1 deletion mutant 1−253 (UniProt Q01147)

Substance	binding [1]	binding [2]	binding [3]	binding [4]	binding [5]	binding [6]
Mef2c deletional construct Δ(58−85) (from UniProt Q8CFN5-2 1-466)	no binding	–	–	–	–	–
Mef2c deletional construct 175−466 (from UniProt Q8CFN5-2 175-466) (domain or fragment)	no binding	–	–	–	–	–
6×Myc-Mef2c (from UniProt Q8CFN5-2 1-466)	binds	no binding	binds	binds	binds	no binding
Mef2c deletional construct 86−466 (from UniProt Q8CFN5-2 86-466) (domain or fragment)	no binding	–	–	–	–	–
